Results taken from article PMC9307175.
These are yes or no findings as the source states them, for the method shown. For some of these results: In cells and extracts the contact can be indirect. Some results given as binding are weak or reduced against the parent protein; the word gives no strength. For some of these results: Tags and fused reporters may be left off the sequences shown.

Assays:
[1] = target: T1, chitin-binding domain (CBD)-tagged STAT2 (human (HeLa cDNA library)), P52630; experiment: pull-down; both purified; details: remark: other sources report otherwise
[2] = target: T1, chitin-binding domain (CBD)-tagged …; experiment: co-IP; details: remark: other sources report otherwise
[3] = target: S-peptide-tagged vIRF-1 (vIRF-1-S), expressed in transfected 293T cells (human herpesvirus 8 (HHV-8)) (UniProt F5HF68); experiment: co-IP
[4] = target: STAT1-Flag/STAT2-CBD complexes isolated by Flag IP and chitin AP from IFNβ-treated transfected 293T cells (human | human (HeLa cDNA library)) (UniProt P42224); experiment: co-IP

B1: IRF9, endogenous in 293T cells, Q00978 1-393 (protein)
chain: MASGRARCTRKLRNWVVEQVESGQFPGVCWDDTAKTMFRIPWKHAGKQDFREDQDAAFFKAWAIFKGKYKEGDTGGPAVWKTRLRCALNKSSEFKEVPERGRMDVAEPYKVYQLLPPGIVSGQPGTQKVPSKRQHSSVSSERKEEEDAMQNCTLSPSVLQDSLNNEEEGASGGAVHSDIGSSSSSSSPEPQEVTDTTEAPFQGDQRSLEFLLPPEPDYSLLLTFIYNGRVVGEAQVQSLDCRLVAEPSGSESSMEQVLFPKPGPLEPTQRLLSQLERGILVASNPRGLFVQRLCPIPISWNAPQAPPGPGPHLLPSNECVELFRTAYFCRDLVRYFQGLGPPPKFQVTLNFWEESHGSSHTPQNLITVKMEQAFARYLLEQTPEQQAAILSLV
binding [1]: binds | binding [2]: binds

B2: Flag-tagged IRF9 (pCEBZ-IRF9-SF) (protein, UniProt Q00978 1-393)
chain: MASGRARCTRKLRNWVVEQVESGQFPGVCWDDTAKTMFRIPWKHAGKQDFREDQDAAFFKAWAIFKGKYKEGDTGGPAVWKTRLRCALNKSSEFKEVPERGRMDVAEPYKVYQLLPPGIVSGQPGTQKVPSKRQHSSVSSERKEEEDAMQNCTLSPSVLQDSLNNEEEGASGGAVHSDIGSSSSSSSPEPQEVTDTTEAPFQGDQRSLEFLLPPEPDYSLLLTFIYNGRVVGEAQVQSLDCRLVAEPSGSESSMEQVLFPKPGPLEPTQRLLSQLERGILVASNPRGLFVQRLCPIPISWNAPQAPPGPGPHLLPSNECVELFRTAYFCRDLVRYFQGLGPPPKFQVTLNFWEESHGSSHTPQNLITVKMEQAFARYLLEQTPEQQAAILSLV
binding [3]: binds

B3: IRF9, endogenous in 293T cells (protein, UniProt Q00978 1-393)
chain: MASGRARCTRKLRNWVVEQVESGQFPGVCWDDTAKTMFRIPWKHAGKQDFREDQDAAFFKAWAIFKGKYKEGDTGGPAVWKTRLRCALNKSSEFKEVPERGRMDVAEPYKVYQLLPPGIVSGQPGTQKVPSKRQHSSVSSERKEEEDAMQNCTLSPSVLQDSLNNEEEGASGGAVHSDIGSSSSSSSPEPQEVTDTTEAPFQGDQRSLEFLLPPEPDYSLLLTFIYNGRVVGEAQVQSLDCRLVAEPSGSESSMEQVLFPKPGPLEPTQRLLSQLERGILVASNPRGLFVQRLCPIPISWNAPQAPPGPGPHLLPSNECVELFRTAYFCRDLVRYFQGLGPPPKFQVTLNFWEESHGSSHTPQNLITVKMEQAFARYLLEQTPEQQAAILSLV
binding [4]: binds
